# Laboratory results taken from PubChem BioAssay AID686970 (National Center for Advancing Translational Sciences (NCATS), 2013).
# Among all 360,000 compounds or so, about 6,000 (1.7%) were called active. The shares of active, inactive and inconclusive entries below differ from those in the screen. Calls follow the shape of the dose curve; as a rule, active = well fitted cell-killing curve with a large enough effect; inconclusive = small, poorly fitted or top-dose-only effect, or effect the other way; inactive = flat fitted curve, though single readings scatter. Potencies of inconclusive entries are left out as doubtful fits.
# Assay: qHTS for induction of synthetic lethality in tumor cells producing 2HG: qHTS for the HT-1080-NT fibrosarcoma cell line;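 also: NT is the 2HG producing partner of a matched IDH1 knockdown line; nearly all actives have a fitted effect of over 55% in size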;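 as to activity, negative = less viability: 0% = DMSO-treated cells and -100% = media-only wells without cells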
# Conditions: HT-1080-NT fibrosarcoma viability, CellTiter-Glo ATP luminescence, 48 h; activity, negative = less viability: at 46.1 µM (top of the series) unless noted
# Method in brief: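 A 48-hour cytotoxicity screen used HT-1080-NT cells plated 2 hours before compound delivery. ATP-based CellTiter-Glo luminescence measured viability, normalized to DMSO and no-cell controls.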
# Potency is read from the fitted curve at half-maximal effect; tags tell the direction and shape of the fitted curve.
SMILES,"activity, negative = less viability",Potency
Cc1c(C(=O)N2CCOCC2)oc2ccccc12,inactive: -3.12% [at 9.24 µM],
COc1cc2c(cc1OC)C(c1ccccc1N)=NCC2,inactive: 0.488%,
COc1ccc(CC(=O)N2CCC(Nc3nc4ccccc4n3Cc3ccc(F)cc3)CC2)cc1,,"inconclusive [cytotoxic, partial curve]"
Cc1cccc(Nc2nc(N)nc(CCl)n2)c1C,,active: 1.64 µM
CNC(=O)COc1coc(CN2CCN(c3ccc(OC)cc3)CC2)cc1=O,,"inconclusive [rising, single point]"
N#CC1=C(N)C(C#N)(C#N)C(c2ccncc2)C2CN(C(=O)OCc3ccccc3)CC=C12 (stereo not given),,"inconclusive [cytotoxic, single point]"
CCOc1ccc(Nc2cc(C)nc3ccc(C)cc23)cc1,,active: 29.1 µM
COc1cc(C(=O)NNC(=O)C2CC=CCC2C(=O)O)cc(OC)c1OC (stereo not given),,"inconclusive [cytotoxic, single point]"
CN(C(=O)c1cccc(NC(=O)Cc2ccc(NC(=O)C3CCN(C(=O)C4CCCC4)CC3)cc2)c1)C1CCCC1,inactive: 3.57%,
Cc1cc(O)cc(O)c1C=NCc1ccco1,,"inconclusive [cytotoxic, single point]"
CCOC(=O)c1[nH]c(C)c(C(=O)OCc2ccccc2F)c1C,,active: 11.6 µM
CNC(=O)COC(=O)c1ccc(Cl)c(S(N)(=O)=O)c1,,"inconclusive [rising, single point]"
Cc1ccc(-c2nc3ccc(C)cn3c2Cc2ccsc2)cc1,,"inconclusive [cytotoxic, single point]"
N#Cc1c(N)n(-c2ccc(N)cc2)c2nc3ccccc3nc12,,"inconclusive [cytotoxic, single point]"
COC(=O)C1=C(C)N(Cc2ccc(C)cc2)C(=O)/C1=C\c1cc(OC)c(OC)c(OC)c1,,"inconclusive [cytotoxic, single point]"
O=C(O)c1ccc(N/N=C/c2ccc3nccnc3c2)cc1,,"inconclusive [cytotoxic, partial curve]"
CC(=O)c1c(C)[nH]c(C(=O)Nc2ccc(C)cn2)c1C,,"inconclusive [rising, partial curve]"
NC(N)=N/N=C/c1ccc(OCc2ccccc2)cc1,,active: 17.8 µM
Cc1cccnc1C(NC(=O)C1CCN(Cc2ccc3ccccc3n2)CC1)c1ccc(Cl)cc1 (stereo not given),,"inconclusive [cytotoxic, single point]"
CC1=C([N+](=O)[O-])C(c2cccc(Br)c2)C2=C(N1)c1ccccc1C2=O (stereo not given),,active: 1.3 µM
CCOC(=O)N1CCC(NC(=S)Nc2ccc3nc(N4CCN(CC)CC4)cc(C)c3c2)CC1,,"inconclusive [cytotoxic, single point]"
c1ccc(CSc2cc3ccccc3[nH]2)cc1,,"inconclusive [cytotoxic, single point]"
Cc1cc(NS(=O)(=O)c2ccc(NC(=O)c3cccnc3)cc2)nc(C)n1,,"inconclusive [rising, partial curve, poor fit]"
CN(C)C(CNC(=O)CCc1nc2sc3c(c2c(=O)[nH]1)CCCC3)c1ccccc1 (stereo not given),inactive: -3.1%,
C[n+]1c(-c2ccccc2)cc2c(=Cc3ccccc3)c3ccccc3n21,,"inconclusive [cytotoxic, single point]"

SMILES,"activity, negative = less viability",Potency
CCN(CC)c1ccc(CN2CCC(C(=O)NCc3ccc(C)cc3)CC2)cc1,,"inconclusive [cytotoxic, single point]"
CCN(CC)c1ccc(CN(C(=O)c2cccs2)C2CCS(=O)(=O)C2)cc1 (stereo not given),inactive: 4.02%,
CCOc1ccc(/C=C(\C#N)C(=O)NC2CC2)c(OCC)c1,inactive: 7.31%,
COc1ccc(-c2nc(CS(=O)CC(=O)NCCCN3CCOCC3)c(C)o2)cc1OC (stereo not given),inactive: -3.77%,
Oc1ccc(CN2CCN(c3ccccc3)CC2)c2cccnc12,,active: 1.12 µM
O=C1C=CC(=NN=C(c2ccccc2)c2ccccc2)C=C1,,"inconclusive [cytotoxic, single point]"
O=S(=O)(Nc1ccc(O)c2ccccc12)c1cccs1,,active: 25.9 µM
c1ccc(C2[C@H]3CN(Cc4cccnc4)[C@H](c4ccccc4)C34CC2(c2ccccc2)C4)cc1 (stereo not given in full),,"inconclusive [cytotoxic, single point]"
CCCCCNC(=O)C(c1ccc(OC)cc1)n1c(=O)c(-c2ccco2)nc2ccccc21 (stereo not given),,active: 25.9 µM
O=c1ccc2ccccc2c2ccccc12,,active: 8.2 µM
Cc1ccc2c(c1)C(=O)CC(c1ccc3c(c1)OCCO3)O2 (stereo not given),inactive: -16.3%,
Cc1sc2ncnc(Sc3nnnn3-c3ccccc3)c2c1C,,active: 10 µM
CN(C(=O)c1ccc(S(=O)(=O)c2cccc(Cl)c2)c([N+](=O)[O-])c1)C1CCCCC1,,"inconclusive [cytotoxic, single point]"
Cc1ccc(NS(=O)(=O)c2ccc(C(=O)NCc3ccc(S(N)(=O)=O)cc3)cc2)cc1,inactive: 0%,
O=C(O)c1ccc2c(c1)OCCCO2,inactive: -5.56%,
Cc1ccc(OCC(=O)Nc2ccc(N3CCN(C(=O)c4ccco4)CC3)cc2)cc1C,,"inconclusive [cytotoxic, partial curve]"
O=C(O)C(Cc1ccccc1)N=Cc1c(O)c2ccccc2oc1=O (stereo not given),inconclusive: -33% [cytotoxic],
Cc1cccc(Nc2nc(NCc3ccco3)c3ccccc3n2)c1,,"inconclusive [cytotoxic, single point]"
CC(=O)c1ccc(-c2cnc3c(NC=O)cc(-c4cccc(C(=O)N(C)C)c4)cn23)cc1,,"inconclusive [cytotoxic, partial curve]"
COc1ccc(Br)cc1CN1CCN(C(=O)c2ccco2)CC1,inactive: 2.49%,
Cc1cc(OCC(=O)Nc2cc(S(=O)(=O)N3CCOCC3)ccc2N2CCCC2)ccc1C(C)C,inactive: 7.5%,
O=C(NNC(=O)c1cccs1)c1cccc(F)c1,inactive: 3.88%,
O=C(C[n+]1ccc2ccccc2c1)c1ccccc1,inactive: 15.2%,
Cc1ccc(Nc2nc3nonc3[nH]c2=O)cc1C,,"inconclusive [cytotoxic, single point]"
CC(=O)Nc1ccc(-c2ccnc3c2CC(C(=O)Nc2ccccc2)O3)cc1 (stereo not given),,"inconclusive [cytotoxic, single point]"

SMILES,"activity, negative = less viability",Potency
Cc1ccc(C(=O)NC(Cc2ccccc2C(F)(F)F)C(=O)O)cc1 (stereo not given),inactive: 2.9%,
O=C(c1ccccc1)c1c[nH]c(C(=O)NNc2ccccc2)c1,inconclusive: -36.9% [cytotoxic],
O=C(NCCNC1CCC(c2ccccc2)CC1)c1cccs1 (stereo not given),,"inconclusive [cytotoxic, partial curve]"
CCOc1ccc(NC(=S)N2CCCC2)cc1,,"inconclusive [rising, single point]"
CC(C)(C)c1cc(NCCCn2ccnc2)n2ncc(-c3ccc(Cl)cc3)c2n1,,active: 10 µM
CCS(=O)(=O)N1Cc2ccccc2CC1C(=O)N(C)CC(=O)Nc1cccc(F)c1 (stereo not given),inactive: -0.298%,
CN(C)S(=O)(=O)N1CCC(Oc2cccc(C(=O)NCCCC3CCCC3)c2)CC1,,"inconclusive [cytotoxic, single point]"
CCCCCOc1ccc(NC(=O)CSc2cccc3cccnc23)cc1,,"inconclusive [cytotoxic, single point]"
CC(CCc1ccccc1)NC(=O)c1ccc(C(=O)NC(C)CCc2ccccc2)cc1 (stereo not given),inconclusive: -0.841% [cytotoxic],
CC(C(=O)O)N1CCCCC1 (stereo not given),inactive: 12.3%,
COC(=O)CN1C(c2ccc(Cl)cc2)=Nc2ccc(Cl)cc2C1c1ccccc1 (stereo not given),,"inconclusive [cytotoxic, single point]"
O=C(Nc1ccc(F)c(F)c1)c1ccc(F)c(S(=O)(=O)N2CCC3(CC2)OCCO3)c1,,"inconclusive [cytotoxic, single point]"
C/C(=N\Nc1ccc(Cl)cc1)c1ccncc1,,"inconclusive [cytotoxic, single point]"
O=C(Nc1cccc(C(F)(F)F)c1)C1Cc2c(-c3ccc(Cl)cc3)ccnc2O1 (stereo not given),,"inconclusive [cytotoxic, partial curve]"
CC(=O)N1c2ccc(S(=O)(=O)N3CCCCC3)cc2CC1C(=O)Nc1ccc(C)cc1 (stereo not given),inactive: -14.3%,
Cc1cccc(N=c2oc3cc(O)ccc3cc2C(N)=O)c1,,"inconclusive [cytotoxic, single point]"
O=C(OCC(=O)N1CCN(C(=O)c2ccco2)CC1)c1cccc(F)c1,inactive: -0.205%,
CCCc1[nH]nc2c1C(c1cn[nH]c1-c1ccc(F)cc1)C(C#N)=C(N)O2 (stereo not given),,"inconclusive [cytotoxic, single point]"
Cc1ccc(C)c(S(=O)(=O)N(C)C2CCS(=O)(=O)C2)c1 (stereo not given),inactive: 0.897%,
O=C(NCC1CCN(Cc2ccccc2F)CC1)Nc1cccc(Br)c1,,"inconclusive [cytotoxic, single point]"
O=C(Nc1cc(Sc2ccccn2)cc([N+](=O)[O-])c1)c1cccc(Cl)c1,,"inconclusive [cytotoxic, single point]"
O=C1CN(C(=O)/C=C/c2cc(Br)ccc2F)CCN1,inactive: 8.94%,
CC1=Nc2cc(C(=O)NCc3ccco3)ccc2Sc2ccc(C)cc21,,active: 3.66 µM
COc1ccccc1NC(=O)CSc1nncn1-c1ccccc1,inactive: 9.49%,
CC(=O)Nc1cccc(-c2cc(NC(C)=O)c3ncc(-c4ccccc4)n3c2)c1,,"inconclusive [cytotoxic, partial curve]"
